Data as given in the supplement of paper PMC12632987.
In all, about 4,500 sequences were measured (“median log2 fold change of GCK-ALFA target abundance (FLAG IP / Myc IP barcode read proportion)”: median about 0.078, lowest 2% from about -0.6 on). Some of the results follow.

B1: GBRAP_14_3850 (protein)
chain: VEALVKAVEETAEETKEMAAEVLPEHAEEVNKKIEELAKKIIERIKKEKLNKDEVAELMDEFAEEVAKFIREKGFANETEIAAIRAEIINEAALELEEVE
B2: GBRAP_160_4078 (protein)
chain: SEETEKLEKEIREIGEEAVEWMKEEDYENRVAIARVMAGDILMLVDEYPKMSDEQEEEVDEILDETVAAIEANPDISDEELAALVEETAEKVIEIVKEAA
B3: GBRAP_150_3931 (protein)
chain: SLEELEILTDTALDLVDVIEELGLPAAENALKVAEAAEEEAKEIDEELAKLAKEAAEKLKELVKLMKEGGKEEELKKLIEEARKKIKEAEKRVEKLKKES
B4: GBRAP_128_3258 (protein)
chain: ANPAVVARAEAFVAALKSSDPAERRAIARDFAAWLASVSDEEAAQAVAVVEARLHELTAEQLEILADELRAALPQLSPEKARLAAGLEVDALNEAEEKEE
B5: GBRAP_160_4853 (protein)
chain: SAKLEKALKIVEENEKFALDAIDEAPQSQRGAIATAIAGTTILELEEEGLLSEEMEEKLAEVRDKLEAELKANADADAAVHKELVKKAFEEMKKIIKEMM
B6: GBRAP_128_3326 (protein)
chain: MDEERLEEAEELIEAIVEADVETAKELTRELLKLMETLSPEERERVVELAEERLEELDAEKLEAIADTIEEEMPNLDPETALYANEIRVEALNLAEEKEE
B7: GBRAP_83_6937 (protein)
chain: KEKITVVANDDNIEKSFEIAEDLHKEEGYEVDIDVIITKESIEKLLKEVEKLFKKGVNADLHISLLGVTEEEAEELKKKLEEMAKKYGVNANITVEAIEL
B8: GBRAP_128_3364 (protein)
chain: VNEEILKKVEELVEAIINSSVEEAKELAKEIVELMLKASKEEQEAMAEIIKKKLPELSAEKLEVLADVIREMLPKADPYTKEILSDIEVEALNEAEEKEE
B9: GBRAP_160_4810 (protein)
chain: KEKAEKLMEEARKDLLETAEASADLPIEDRARLLEAEGYTSILDFEEELNISDETEEELDEVVDDLVARLLANPDLSREEVLALVEEAVERMKEIVEKEV
B10: GBRAP_53_6424 (protein)
chain: AAAAIAALRAQARELADQATKADAATQAALTAQINALLAQLKAAGAPDAEIAALAAEIAKRLKAAGAADSALVALAQGMAALGLDDATAAVAEEAVEELE
B11: GBRAP_166_4908 (protein)
chain: SNEERIKKLKEEAEKVIEELKEADEEEALELIIEFGELLRELKELGASEEEILELVRKLLKAVKEKGFSVAVAAGIVANEAEFDEEEIDKLDAIAKEVAA
B12: GBRAP_128_3539 (protein)
chain: SLEEVRARARAVMERIKASDVETARAIMKEFLAELKGLSLEEVEAAIDVLEELLPELTAEKLEAIADAMDEMRPELSPEKQNLVADLQVAALNEAEEKEE
B13: GBRAP_184_5212 (protein)
chain: EVVHRSVEAETAEEAIKKSEEVVAEAKAEGKKLVLHVFAKNMSLEEIEKVMEYLSKLKKEGLIEDAVLHVEDDKSEEEIDKLIELADKYGIRLVIALPDE
B14: GBRAP_128_3475 (protein)
chain: SVEAVVEETRRTMREIIEADLETARELAEELFARLAGLPLEAVEAAVEVIESLLPELSAEKLEILAEVADAARPAFDPEKAALLADLASEALLLAEEKEE
B15: GBRAP_83_6914 (protein)
chain: MKEITVVAAGDHIEEAFEAAIDLHKEGVDHIILEVIIRPEQFPTLEAGVARMLAAGVKLDLHVLVEGGTEEEAAALQARLEAIAAAAGRDVKVTVEVIKP
B16: GBRAP_35_5578 (protein)
chain: EDKEMLLETVRDLAEATIEAIKEGDLDLAIALLEALLRTAELAVEELANDAEALEEIAALLERVIAAIKEHLADDPRVQALLARLEALLARTKALLAAVK
B17: GBRAP_166_4911 (protein)
chain: SMEEKVEEAKKRIEELVKEMPKLDAEGQLEAAIEIAEVIRELKEAGASEEQIDEVLRFLAESLKKEGLDVKRLMAIVAAAAEFDEEEMDRVDEIVEEVLK
B18: GBRAP_52_5993 (protein)
chain: MREEARRIAEEAVELMLEGKEEEAEKLLREVAETKSEEFLELVAEELARLAEEAGPEERDAIVEVAIMLEDIMREKGFDEAIADDQLARVAAAAYEALLR
B19: GBRAP_150_3926 (protein)
chain: DLETLLTIVDTLIDLLEGIADGELSLVPHALKLAEAAREEAKELPEEIREPVLEKLERIIKYLKEIAAGAPEEERKKLIEEALRLAEEVRELVEKEIERS
B20: GBRAP_78_6692 (protein)
chain: EVEELLDKALEHLGKAASILAKMNTPEANDLLGEVLDVASTVEEALFGEADLEELKEAAKKLEEALKKAKKIDTPEAKEAAKELEKALKYLKEAIKKLEA
B21: GBRAP_184_5259 (protein)
chain: KVLERVVEAKNVEELKKKMEEIAKEALKSGADVIILLEVEKLTKEMIDALFESIKKLKESGYKGKITVGIDADLTEEMIDYAIEKADEAGVNLTLAIDEE
B22: GBRAP_52_5873 (protein)
chain: MLEEAVEKLKEAVEAMKAGKEEEAKKILKEIVEKFDDETIVEAVKKLAEEVLEKSLEEAKAFYETVELLSEIMIEEGRDENIASYLEAIAGATLYKVEQK
B23: GBRAP_78_6716 (protein)
chain: ELEKVLEKAIEVLNEAAKLALTLPEEKANEILDLIVEATNLLEEILEPGVKKEEAIKKLEEAAKLLKKAIELLGDEDPELRKKLEEALKLVKEALKIAKE
B24: GBRAP_52_5862 (protein)
chain: MREEIRKKLEEMLALVKAGDLEGAEKLAEELVKSLTEEEVELLIEVAAELALSLAPEDLDAMWTLTELIAKALEKAGFPEELVTLFEDEVGAAIAKVEAA
B25: GBRAP_166_4977 (protein)
chain: SQKEIVEKVKKYIDELAEKMKTANHEEKLELLAEAAEKIEEARKAGISKEQLKELIKYLIEKALAVGLTLSEVEGALRIIANLDEEEIDLLDEAIAEVKA
B26: GBRAP_128_3359 (protein)
chain: LDEELLKKAKELVEKILKADVEEAKELTKEILKLMKEATDEEAEAIVKILIEALPKLTAEKLEAIADAMREARPEATPYKANLIAEAEVEALNEAEEKEE
B27: GBRAP_184_5228 (protein)
chain: TTVNRSVEAKTEEELIAKIDAVVAEAAAAGEKLNLHAFAENVSLEGIRRIMAHLAELKAAGRIADATLVITDERSEEEIDELVALADEYGVKLVIALSEE
B28: GBRAP_35_5526 (protein)
chain: SSEETAAEMLAAFIEDLTLAVPDMPVEQLVALSLAAAKTARELAKELKDNLESLQLLLEAVEALIEAIRKHHGDDPLAQEAVAALEEVAKELKKRIKEAE
B29: GBRAP_160_4198 (protein)
chain: SEKIEEVIRLIREETEEVIALLDEESVEEVAVFAAVEFGSVLMEAVELGIENDEIEDIIADAGDAVVATLKAKADASVEELKAAIRAITDKAIEEIKKAA

Each binder was assayed against GABARAP, O95166 (assay: median log2 fold change of GCK-ALFA target abundance (FLAG IP / Myc IP barcode read proportion) (log2 ratio); each designed protein is fused to an ALFA-tag nanobody in HEK293 cells to bring the named protein to FLAG-tagged glucokinase (GCK); Myc marks an untargeted standard; higher = target protein stabilised (more abundant)). Conditions: target protein: 3xFLAG-MCP-GCK-ALFA reporter; HEK293 landing pad (RPLP).
How it was run: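 The readout is target abundance, the per-binder median log2 ratio of FLAG to Myc barcode read proportions. It came from HEK293 landing-pad cells carrying a recombined ALFA-nanobody-fused binder library, induced with 2 μg mL^−1 doxycycline and transfected with a plasmid for a FLAG-tagged target and a Myc-tagged standard. After 48 h, lysates were immunoprecipitated with anti-FLAG and anti-Myc, and circular RNA barcodes were reverse transcribed, amplified and sequenced. Each barcode needed a proportion of at least 10^−7 in both replicates and each binder at least 3 barcodes per replicate, a pseudocount of 10^−6 was added, and the replicates were pooled.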

Sequence of GABARAP, O95166 (O95166 whole entry, the tested form may be a part): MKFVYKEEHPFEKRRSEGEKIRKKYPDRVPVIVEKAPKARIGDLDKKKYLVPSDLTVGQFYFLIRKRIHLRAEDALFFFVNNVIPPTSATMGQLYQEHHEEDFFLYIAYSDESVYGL

Going from B1 to B2, the “median log2 fold change” value falls from 0.129 to -0.282.

B3 and B4 are within 0.2 log units of each other in “median log2 fold change” value: 0.239 for the first, 0.21 for the second.

First: B5
Second: B6
The “median log2 fold change” value of the first is higher: 0.207 for the first, -0.0419 for the second.

B7 and B8 are within 0.2 log units of each other in “median log2 fold change” value: 0.224 for the first, 0.314 for the second.

First: B9
Second: B10
The “median log2 fold change” value of the first is lower: -0.669 for the first, 0.367 for the second.

B11 and B12 are within 0.2 log units of each other in “median log2 fold change” value: -0.0494 for the first, 0.0799 for the second.

B13 and B14 are within 0.2 log units of each other in “median log2 fold change” value: 0.134 for the first, 0.161 for the second.

Going from B15 to B16, the “median log2 fold change” value falls from -0.0485 to -0.85.

Compared with B17, B18 is lower in “median log2 fold change” value: 0.203 for the first, -0.364 for the second.

First: B19
Second: B20
The “median log2 fold change” value of the first is higher: 0.227 for the first, -0.128 for the second.

B21 and B22 are within 0.2 log units of each other in “median log2 fold change” value: 0.225 for the first, 0.134 for the second.

B23 and B24 are within 0.2 log units of each other in “median log2 fold change” value: 0.202 for the first, 0.15 for the second.

B25 and B26 are within 0.2 log units of each other in “median log2 fold change” value: 0.288 for the first, 0.418 for the second.

Going from B27 to B28, the “median log2 fold change” value falls from 0.09 to -0.452.

In the case of B29, the “median log2 fold change” value is reported as -0.373.
